The record followed here is publication PMC7159923.

Chains of the proteins cited; added tags and fusions are not shown. Lines headed by an entry give the natural chain unless they say otherwise; changes in a name come on top. A line that says so, or that is headed by a name, gives the form on record, which may keep a tag or linker. Residues count along the entry.
UniProt Q6DN90: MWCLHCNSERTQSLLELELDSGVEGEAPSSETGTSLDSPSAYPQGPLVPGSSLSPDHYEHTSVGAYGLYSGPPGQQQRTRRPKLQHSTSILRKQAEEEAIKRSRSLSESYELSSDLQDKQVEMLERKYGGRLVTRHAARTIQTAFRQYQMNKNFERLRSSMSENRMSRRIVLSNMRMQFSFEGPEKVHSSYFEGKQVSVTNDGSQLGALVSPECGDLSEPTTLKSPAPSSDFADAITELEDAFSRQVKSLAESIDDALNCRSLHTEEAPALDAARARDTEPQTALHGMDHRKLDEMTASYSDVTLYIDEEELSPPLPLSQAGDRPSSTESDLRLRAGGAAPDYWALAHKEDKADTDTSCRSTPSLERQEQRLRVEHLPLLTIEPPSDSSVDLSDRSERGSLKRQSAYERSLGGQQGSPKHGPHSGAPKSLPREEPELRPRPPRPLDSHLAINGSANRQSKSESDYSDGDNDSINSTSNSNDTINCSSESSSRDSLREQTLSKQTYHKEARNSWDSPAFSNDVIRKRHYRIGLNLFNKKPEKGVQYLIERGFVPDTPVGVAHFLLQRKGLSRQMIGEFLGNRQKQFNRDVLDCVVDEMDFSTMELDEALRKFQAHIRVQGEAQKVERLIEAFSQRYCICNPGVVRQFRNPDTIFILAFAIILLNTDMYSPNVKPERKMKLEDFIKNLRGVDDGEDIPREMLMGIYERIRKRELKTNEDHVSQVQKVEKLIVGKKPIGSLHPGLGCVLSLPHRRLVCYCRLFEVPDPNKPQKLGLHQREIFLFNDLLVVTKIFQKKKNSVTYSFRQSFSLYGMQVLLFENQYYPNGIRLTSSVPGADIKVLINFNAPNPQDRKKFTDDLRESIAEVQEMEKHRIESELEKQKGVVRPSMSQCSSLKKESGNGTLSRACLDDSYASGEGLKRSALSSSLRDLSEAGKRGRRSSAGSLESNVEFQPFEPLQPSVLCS
mCherry-IQSec1^116-870: residues 130-884 of Q6DN90
mCherry-IQSec1^116-833: residues 130-847 of Q6DN90
mCherry-IQSec1^116-759: residues 130-773 of Q6DN90
mCherry-IQSec1^116-502: residues 130-516 of Q6DN90
mCherry-IQSec1^116-245: residues 130-259 of Q6DN90
mCherry-IQSec1^116-212: residues 130-226 of Q6DN90
GST-IQSec1^152-212: residues 166-226 of Q6DN90
mCherry-IQSec1∆^152-212 (Q6DN90-3, form named): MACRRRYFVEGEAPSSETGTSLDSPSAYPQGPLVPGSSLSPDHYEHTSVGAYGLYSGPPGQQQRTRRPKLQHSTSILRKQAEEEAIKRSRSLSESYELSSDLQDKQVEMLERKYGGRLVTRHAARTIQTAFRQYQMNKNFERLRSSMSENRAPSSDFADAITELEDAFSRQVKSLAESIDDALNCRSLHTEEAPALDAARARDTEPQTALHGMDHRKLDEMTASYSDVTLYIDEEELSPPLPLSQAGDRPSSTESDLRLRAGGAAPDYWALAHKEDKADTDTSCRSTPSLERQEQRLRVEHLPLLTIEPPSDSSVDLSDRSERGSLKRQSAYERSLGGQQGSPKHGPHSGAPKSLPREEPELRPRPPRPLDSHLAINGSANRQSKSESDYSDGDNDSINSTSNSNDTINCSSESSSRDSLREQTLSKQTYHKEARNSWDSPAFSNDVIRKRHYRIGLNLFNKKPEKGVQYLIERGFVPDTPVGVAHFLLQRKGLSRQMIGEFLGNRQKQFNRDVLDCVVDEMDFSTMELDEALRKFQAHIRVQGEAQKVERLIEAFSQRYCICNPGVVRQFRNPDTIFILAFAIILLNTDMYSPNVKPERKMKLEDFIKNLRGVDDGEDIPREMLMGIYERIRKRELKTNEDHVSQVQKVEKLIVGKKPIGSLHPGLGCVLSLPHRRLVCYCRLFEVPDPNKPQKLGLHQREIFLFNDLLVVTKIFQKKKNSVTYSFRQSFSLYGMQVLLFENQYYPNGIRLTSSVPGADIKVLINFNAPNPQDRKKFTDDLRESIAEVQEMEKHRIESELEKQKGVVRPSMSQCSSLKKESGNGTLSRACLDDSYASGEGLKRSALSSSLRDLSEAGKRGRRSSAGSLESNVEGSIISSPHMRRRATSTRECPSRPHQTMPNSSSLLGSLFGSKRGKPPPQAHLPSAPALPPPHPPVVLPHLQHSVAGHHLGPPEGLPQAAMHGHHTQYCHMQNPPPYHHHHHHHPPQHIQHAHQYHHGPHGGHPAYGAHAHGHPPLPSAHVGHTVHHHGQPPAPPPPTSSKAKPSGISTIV
mCherry-IQSec1 (Q6DN90-3, form named): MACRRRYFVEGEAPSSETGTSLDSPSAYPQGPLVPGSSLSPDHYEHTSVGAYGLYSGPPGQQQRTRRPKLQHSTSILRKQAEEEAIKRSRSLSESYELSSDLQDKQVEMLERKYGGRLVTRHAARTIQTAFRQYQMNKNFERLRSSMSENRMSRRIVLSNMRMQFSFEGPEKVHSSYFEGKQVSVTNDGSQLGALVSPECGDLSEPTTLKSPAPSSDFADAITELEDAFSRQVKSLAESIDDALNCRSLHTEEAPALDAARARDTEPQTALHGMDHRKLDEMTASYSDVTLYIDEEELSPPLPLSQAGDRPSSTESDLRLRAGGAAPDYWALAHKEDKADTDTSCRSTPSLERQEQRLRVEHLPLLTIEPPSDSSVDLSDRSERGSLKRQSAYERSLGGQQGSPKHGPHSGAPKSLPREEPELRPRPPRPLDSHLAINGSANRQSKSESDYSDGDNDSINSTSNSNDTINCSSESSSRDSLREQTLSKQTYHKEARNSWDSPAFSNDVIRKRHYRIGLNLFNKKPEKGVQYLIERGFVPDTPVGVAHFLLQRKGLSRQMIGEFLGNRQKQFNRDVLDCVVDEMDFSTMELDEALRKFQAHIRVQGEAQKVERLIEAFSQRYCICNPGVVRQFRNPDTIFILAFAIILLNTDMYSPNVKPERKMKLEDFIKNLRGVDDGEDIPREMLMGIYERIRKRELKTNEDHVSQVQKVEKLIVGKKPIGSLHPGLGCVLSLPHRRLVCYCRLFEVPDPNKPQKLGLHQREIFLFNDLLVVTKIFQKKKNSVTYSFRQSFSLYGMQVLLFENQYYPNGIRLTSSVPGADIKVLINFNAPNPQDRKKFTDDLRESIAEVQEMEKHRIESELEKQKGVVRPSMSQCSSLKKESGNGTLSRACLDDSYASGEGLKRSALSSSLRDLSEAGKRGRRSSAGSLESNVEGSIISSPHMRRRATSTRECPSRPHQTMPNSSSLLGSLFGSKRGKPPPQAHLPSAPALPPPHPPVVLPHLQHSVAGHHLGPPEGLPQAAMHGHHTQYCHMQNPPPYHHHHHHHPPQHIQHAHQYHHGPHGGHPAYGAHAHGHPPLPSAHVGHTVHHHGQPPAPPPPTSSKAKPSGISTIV
mCherry-IQSec1^116-1114 (Q6DN90-3, form named): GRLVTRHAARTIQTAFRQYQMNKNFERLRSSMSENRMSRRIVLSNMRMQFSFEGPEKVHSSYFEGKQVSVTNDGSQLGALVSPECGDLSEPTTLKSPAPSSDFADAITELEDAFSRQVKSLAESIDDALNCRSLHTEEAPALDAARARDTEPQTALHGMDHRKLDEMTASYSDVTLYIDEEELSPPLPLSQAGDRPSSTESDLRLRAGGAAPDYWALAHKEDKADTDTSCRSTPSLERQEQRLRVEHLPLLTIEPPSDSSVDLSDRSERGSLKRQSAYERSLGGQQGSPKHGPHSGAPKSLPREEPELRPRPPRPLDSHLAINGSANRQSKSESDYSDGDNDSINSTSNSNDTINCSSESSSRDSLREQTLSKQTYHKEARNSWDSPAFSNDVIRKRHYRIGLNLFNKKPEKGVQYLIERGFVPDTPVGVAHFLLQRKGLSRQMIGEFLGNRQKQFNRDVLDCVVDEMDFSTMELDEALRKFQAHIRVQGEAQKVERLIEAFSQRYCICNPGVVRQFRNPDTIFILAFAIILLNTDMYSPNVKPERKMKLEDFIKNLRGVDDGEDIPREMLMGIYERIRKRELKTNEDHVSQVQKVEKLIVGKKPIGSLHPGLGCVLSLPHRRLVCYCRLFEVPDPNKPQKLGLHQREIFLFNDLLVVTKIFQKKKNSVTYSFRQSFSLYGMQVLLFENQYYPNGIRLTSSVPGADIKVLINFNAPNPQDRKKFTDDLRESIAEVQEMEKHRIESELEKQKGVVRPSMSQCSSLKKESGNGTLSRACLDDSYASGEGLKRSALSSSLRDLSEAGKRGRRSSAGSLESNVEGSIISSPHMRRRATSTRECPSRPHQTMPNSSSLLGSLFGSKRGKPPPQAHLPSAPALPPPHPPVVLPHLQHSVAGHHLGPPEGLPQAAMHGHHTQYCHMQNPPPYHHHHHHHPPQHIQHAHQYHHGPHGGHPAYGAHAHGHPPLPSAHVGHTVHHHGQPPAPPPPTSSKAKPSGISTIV
UniProt Q9H4L5: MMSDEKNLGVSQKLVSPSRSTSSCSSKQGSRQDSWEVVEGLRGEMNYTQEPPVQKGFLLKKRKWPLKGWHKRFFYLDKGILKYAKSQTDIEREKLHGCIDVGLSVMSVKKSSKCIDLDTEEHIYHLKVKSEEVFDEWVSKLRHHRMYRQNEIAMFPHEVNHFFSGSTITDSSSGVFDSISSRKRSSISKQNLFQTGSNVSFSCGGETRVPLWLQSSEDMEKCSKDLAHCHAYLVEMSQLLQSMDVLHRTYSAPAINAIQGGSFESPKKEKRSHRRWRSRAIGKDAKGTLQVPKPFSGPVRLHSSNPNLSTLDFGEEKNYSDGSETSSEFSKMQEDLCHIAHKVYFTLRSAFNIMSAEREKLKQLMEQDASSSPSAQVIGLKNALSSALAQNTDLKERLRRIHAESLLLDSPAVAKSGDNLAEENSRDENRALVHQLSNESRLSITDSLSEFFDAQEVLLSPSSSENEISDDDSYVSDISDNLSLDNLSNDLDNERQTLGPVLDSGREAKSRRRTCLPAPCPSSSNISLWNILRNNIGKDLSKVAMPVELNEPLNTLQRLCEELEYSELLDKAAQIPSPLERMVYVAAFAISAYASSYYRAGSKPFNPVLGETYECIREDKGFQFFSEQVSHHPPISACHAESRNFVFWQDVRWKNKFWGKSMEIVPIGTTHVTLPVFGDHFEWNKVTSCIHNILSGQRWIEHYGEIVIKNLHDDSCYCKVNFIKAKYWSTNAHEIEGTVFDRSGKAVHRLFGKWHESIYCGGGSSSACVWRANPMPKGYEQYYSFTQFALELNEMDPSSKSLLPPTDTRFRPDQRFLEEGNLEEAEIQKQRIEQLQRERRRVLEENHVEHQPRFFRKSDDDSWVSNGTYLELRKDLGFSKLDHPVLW

In assay [1] the target is mCherry-IQSec1^116-502 (human) (UniProt Q6DN90). The assay is described as follows: co-IP; lysates of HEK-293 cells co-expressing mCherry-IQSec1 (WT or mutants) and GFP-ORP3 (WT or mutants); immunoprecipitated with anti-mCherry antibody and protein A beads, NP-40 lysis buffer, 4°C; probed for GFP.
The target in assay [2] is mCherry-IQSec1∆^152-212 (human) (UniProt Q6DN90). The assay is described as above.
Assay [3] has as its target mCherry-IQSec1^116-212 (human) (UniProt Q6DN90). The assay is described as above.
The target in assay [4] is mCherry-IQSec1^116-245 (human) (UniProt Q6DN90). The description is as above.
For assay [5], the target named is mCherry-IQSec1^116-759 (human) (UniProt Q6DN90). The assay is described as above.
In assay [6] the target is mCherry-IQSec1 (human) (UniProt Q6DN90). The assay is described as above.
For assay [7], the target named is mCherry-IQSec1^116-870 (human) (UniProt Q6DN90). Described as above.
Assay [8] addresses mCherry-IQSec1^116-1114 (human) (UniProt Q6DN90). The assay is described as above.
Assay [9] addresses mCherry-IQSec1^116-833 (human) (UniProt Q6DN90). The assay is described as above.
Assay [10] deals with mCherry-IQSec1 (human) (UniProt Q6DN90). The assay is described as follows: co-IP; cells expressing equivalent amounts of ORP3 and IQSec1, transfected with increasing amounts of vector encoding VAP-A; IQSec1 immunoprecipitated, blot probed for co-precipitating proteins.
In the next assay the target is GFP-ORP3 (human) (UniProt Q9H4L5). The assay is described as follows: co-IP; lysates of cells co-expressing mCherry-IQSec1 and GFP-ORP3; GFP-ORP3 precipitated (GFP-TRAP beads; ORP3 immunoprecipitates), probed for mCherry-IQSec1; cells also treated with thapsigargin (1 µM), BTP2 (25 µM), PMA (2.5 µM) or Gö6983 (20 µM): more with thapsigargin or PMA, less with BTP2 or Gö6983.

Assay [11] deals with GST-IQSec1^152-212 (human) (UniProt Q6DN90). The assay is described as follows: pull-down; lysate of HEK-293 cells expressing mCherry-ORP3, not treated with phosphatase, incubated 60 min with beads containing 10 µg of GST alone or GST-IQSec1 152-212; immunoblot with anti-mCherry; only the target purified. (A western blot detects proteins with antibodies after separation by electrophoresis.)

For assay [12] the target is unchanged. The assay is described as follows: condition: only after λ-phosphatase treatment of the lysate; pull-down; lysate of cells expressing mCherry-ORP3 supplemented with MnCl2 (1 mM) and incubated with 2000 Units of λ-phosphatase for 3 hr at 30°C, then with GST or GST-IQSec1 152-212 beads 60 min; washed with lysis buffer containing 1% NP-40; only the target purified.

These are yes or no findings as the source states them, for the method shown. Binding seen in cells or lysates may run through a third protein. Some entries that bind do so weakly or less than the wild type.

As to GFP-ORP3 (from UniProt Q9H4L5 1-887), the binding result in assay [1] is “binds”; in [2], “no binding”; in [3] it was “binds”; in [4], “binds”; in assay [5], “binds”; with mCherry-IQSec1 (human) [6] it was “binds”. Besides, the binding entry (in [7]; in [8]; in assay [9]; with mCherry-IQSec1 (human) [10]) was “binds” in each case.

Turning to “GFP-ORP3Δ^ORD (1-555) (from UniProt Q9H4L5 1-555) (domain or fragment)”, the binding result with mCherry-IQSec1 (human) [6] is recorded as “binds”.

Take “ORP3^1-445 (from UniProt Q9H4L5 1-445) (domain or fragment)”: the binding entry with mCherry-IQSec1 (human) [6] is “no binding”.

“ORP3^398-886 (from UniProt Q9H4L5 398-886) (domain or fragment)”: in the assay with mCherry-IQSec1 (human) [6], the binding entry is given as “no binding”.

Consider “mCherry-IQSec1 (from UniProt Q6DN90-3 1-1114)”, for which the binding result with GFP-ORP3 (human) was “binds”.

As for “mCherry-ORP3 (from UniProt Q9H4L5 1-887)”, the binding result in assay [11] is listed as “binds”; in assay [12], “no binding”.
